# Measured values as given in PubChem BioAssay AID624417 (National Center for Advancing Translational Sciences (NCATS), 2012).
# Hit rate of the full screen: of about 410,000 compounds, about 6,400 (1.6%) were called active. This list was built around the results that the source calls inconclusive (neither active nor inactive); the mix of calls is not that of the screen. The call rests on the fitted dose curve; in most records, active means well fitted inhibition curve with a large enough effect; inconclusive means small, poorly fitted or top-dose-only effect; inactive means no such curve, though single readings can be large or run the other way. Where the call is inconclusive, the potency comes from a doubtful curve fit.
# Target: Glucagon-like peptide 1 receptor (Homo sapiens) (UniProt P43220)
# Sequence of UniProt P43220 (P43220 whole entry, looked up): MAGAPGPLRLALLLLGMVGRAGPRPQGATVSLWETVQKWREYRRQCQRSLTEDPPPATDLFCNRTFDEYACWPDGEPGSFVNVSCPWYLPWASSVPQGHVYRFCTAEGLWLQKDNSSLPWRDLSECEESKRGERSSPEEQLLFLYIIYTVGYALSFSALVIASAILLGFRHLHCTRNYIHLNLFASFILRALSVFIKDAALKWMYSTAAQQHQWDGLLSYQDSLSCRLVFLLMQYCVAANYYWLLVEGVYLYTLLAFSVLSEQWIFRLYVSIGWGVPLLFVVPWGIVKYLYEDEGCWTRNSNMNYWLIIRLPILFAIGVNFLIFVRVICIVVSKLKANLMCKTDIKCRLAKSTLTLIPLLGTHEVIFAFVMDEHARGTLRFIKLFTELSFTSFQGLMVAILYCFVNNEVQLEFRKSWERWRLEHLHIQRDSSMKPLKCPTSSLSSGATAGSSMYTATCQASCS
# Experiment: qHTS of GLP-1 Receptor Inverse Agonists (Inhibition Mode); further: nearly all actives have a fitted effect of over 55% in size
# Settings: HEK293 GLP-1R CRE-luciferase, luminescence, 24 h, GLP-1R form is constitutively active; activity change, negative = inhibition: at 38.3 µM (top of the series) unless noted
# In short: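 GLP-1R inverse agonism mode: basal reporter luminescence in engineered HEK293 cells measured after one day of compound exposure at 37 deg C, with a 12 min room-temperature detection step.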
# On the % scale 0 is the no-effect control and ±100 the full control effect; potency means the concentration at half of the fitted maximal effect; tags describe the fitted curve by direction and shape.
Structure (SMILES),Potency,"activity change, negative = inhibition"
O=C(C/C=N\O)Nc1ccc(Oc2ccccc2)cc1,inactive,–
COc1ccc(NC(=O)CN2C(=O)C(C)(C)c3ccccc32)cc1Cl,"inconclusive: 28.2 µM [inhibitor, single point]",–
CCOCCCn1c(C)nc2c(c1=O)c1nc3ccccc3nc1n2CCC1=CCCCC1,"inconclusive: 3.98 µM [inhibitor, partial curve, poor fit]",–
O=C(C(Cc1ccccc1)n1cccc1)N1CCCCCC1 (stereo not given),"inconclusive: 12.6 µM [inhibitor, single point]",–
O=C(/C=C/c1ccco1)Nc1ccc2nc3n(c(=O)c2c1)CCCC3,inactive,–
CCOC(=O)c1c(-c2ccccc2)csc1NC(=O)CSc1nnc(C)s1,"inconclusive: 28.2 µM [inhibitor, single point]",–
S=C(NCc1cccs1)Nc1cccc2ccccc12,"inconclusive: 28.2 µM [inhibitor, single point]",–
CC(C)CNS(=O)(=O)c1cc(C(=O)O)c(Cl)cc1Cl,"inconclusive: 3.16 µM [inhibitor, full curve, poor fit]",–
Cc1ccc(S(=O)(=O)Nc2cc(=O)[nH]c(SCC(=O)Nc3ccccc3Cl)n2)cc1,"inconclusive: 28.2 µM [inhibitor, single point]",–
CCN(CC)CCCNC(=S)N1CCN(c2nc(-c3ccccc3)cs2)CC1,"inconclusive: 3.16 µM [inhibitor, full curve]",–
C(=N\N1CCN(C2c3ccccc3-c3ccccc32)CC1)/c1cccnc1,active: 11.2 µM,–
COc1ccc(-c2cc(-c3ccccc3O)[nH]n2)cc1OC,"inconclusive: 10 µM [inhibitor, single point]",–
CCCC(=O)NC(NC(=S)Nc1ccc(N=Nc2ccccc2)cc1)C(Cl)(Cl)Cl (stereo not given),"inconclusive: 1.78 µM [inhibitor, full curve, poor fit]",–
Cc1cccc(C(=O)Nc2nnc(S(=O)(=O)N(C)Cc3ccc(Cl)cc3)s2)c1,"inconclusive: 28.2 µM [inhibitor, single point]",–
CCCCNC(=S)N1CCN(c2nc3ccccc3s2)CC1,"inconclusive: 12.6 µM [inhibitor, single point]",–
O=C(NCc1ccc(F)cc1)Nc1ccccc1,inactive,–
O=C1COc2ccc(-c3cc(-c4ccc(Cl)cc4)c4c(n3)-c3ccccc3OC4)cc2N1,inactive,–
Cc1cc(C)cc(Cn2ncc(Cl)c(Cl)c2=O)c1,"inconclusive: 22.4 µM [inhibitor, single point]",–
COc1ccc(-c2nc3ccc([N+](=O)[O-])cc3[nH]2)cc1,"inconclusive: 20 µM [inhibitor, single point]",–
CSc1nc(Nc2ccc(C)cc2C)cc(-c2ccccc2)n1,"inconclusive: 7.08 µM [inhibitor, partial curve, poor fit]",–
Cc1cc(C)n2nc(-c3sccc3-n3cccc3)cc2n1,"inconclusive: 28.2 µM [inhibitor, single point]",–
CC(C)Oc1ccc(C(CCNCc2ccc(O)cc2)c2ccccc2)cc1 (stereo not given),"inconclusive: 7.94 µM [inhibitor, partial curve, poor fit]",–

Structure (SMILES),Potency,"activity change, negative = inhibition"
Cc1ccc(/C=C2\SC(=S)N(CC3CCCO3)C2=O)o1 (stereo not given),"inconclusive: 12.6 µM [inhibitor, single point]",–
Cc1nc2cc(C(=O)NCCC3=CCCCC3)ccc2n1-c1ccc(Br)cc1,"inconclusive: 15.8 µM [inhibitor, partial curve, poor fit]",–
Cc1cccc(Nc2nc(-c3ccc(O)cc3O)cs2)n1,"inconclusive: 28.2 µM [inhibitor, single point]",–
O=C(N/N=C/c1ccc(O)cc1)c1csc2c1CCCC2,"inconclusive: 14.1 µM [inhibitor, partial curve, poor fit]",–
Cc1cc(CNC(=O)c2ccc3nc(Cc4ccccc4F)oc3c2)nn1C,inactive,–
Cc1nc(NC(=O)COC(=O)C(NC(=O)c2ccco2)C(C)C)c(Cl)cc1Cl (stereo not given),inactive,–
Cc1ccc(C(=O)CCS(=O)(=O)c2ccc(F)cc2)cc1,"inconclusive: 28.2 µM [inhibitor, single point]",–
Cc1ccc(C(C(=O)NC2CCCC2)N(Cc2ccco2)C(=O)CCC(=O)Nc2ccccn2)cc1 (stereo not given),"inconclusive: 11.2 µM [inhibitor, partial curve]",–
CCC(=O)C1=C(O)C(c2cccc(Oc3ccccc3)c2)CCC1=O (stereo not given),"inconclusive: 14.1 µM [inhibitor, single point]",–
Cc1cc2nc(/C(C#N)=C/c3ccncc3)[nH]c2cc1C,"inconclusive: 28.2 µM [inhibitor, single point]",–
O=C(CN(c1ccc(Cl)cc1)S(=O)(=O)c1ccc(Cl)c([N+](=O)[O-])c1)NCCc1ccc(F)cc1,inactive,–
C=CCOc1ccccc1CN1CCC(Oc2ccc(C(=O)N3CCCC3)cc2)CC1,"inconclusive: 11.2 µM [inhibitor, partial curve, poor fit]",–
COc1ccc(-c2csc(Nc3ccc(Oc4ccccc4)cc3)n2)cc1,"inconclusive: 3.55 µM [inhibitor, full curve]",–
CCOc1ccc(C(=O)NCc2nnnn2-c2ccc(C)c(C)c2)cc1OCC,inactive,–
O=C(NCc1ccccc1)C1=C[C@H](c2ccc(C(F)(F)F)cc2)C[C@H](OCCCCO)O1,"inconclusive: 31.6 µM [inhibitor, single point]",–
S=C(Nc1cccc(Cl)c1)Nc1cccc2cnccc12,inactive,–
O=C(/C=C/c1ccccc1)/C=C/c1ccccc1,"inconclusive: 28.2 µM [inhibitor, single point]",–
NCCCn1c(C(=O)c2cc(Cl)c(N)c(Cl)c2)c2ccc(C(F)(F)F)cc2[n+]1[O-],"inconclusive: 31.6 µM [inhibitor, partial curve, poor fit]",–
Cc1ccc2oc(-c3ccc(Cl)cc3)c(O)c(=O)c2c1,inactive,–
Cc1ccc(NS(=O)(=O)c2cc(C(=O)Nc3cccc([N+](=O)[O-])c3)ccc2C)cc1,"inconclusive: 10 µM [inhibitor, partial curve, poor fit]",–
Cc1sc2ncnc(Sc3ccccc3C(=O)Nc3ccc(Br)cc3)c2c1C,"inconclusive: 10 µM [inhibitor, partial curve, poor fit]",–
COc1cc(NC(=O)c2[nH]cnc2C(N)=O)cc(C(=O)Nc2cccc(C(F)(F)F)c2)c1,"inconclusive: 10 µM [inhibitor, partial curve, poor fit]",–

Structure (SMILES),Potency,"activity change, negative = inhibition"
O=C(NC1CC2CCCC(C1)N2C(=O)Nc1ccccc1)C1CC1 (stereo not given),"inconclusive: 2.51 µM [inhibitor, partial curve, poor fit]",–
Cc1cc(O)c(C(c2ccccc2)N2CCN(c3ccccc3)CC2)c(=O)n1Cc1ccco1 (stereo not given),"inconclusive: 11.2 µM [inhibitor, single point]",–
Cc1ccc(NC(=O)COc2ccccc2C(=O)NCc2ccccc2)cc1,"inconclusive: 12.6 µM [inhibitor, partial curve, poor fit]",–
COc1ccc(COC[C@H](CC(C)C)N2CCN(C(=O)c3cccc(C(F)(F)F)c3)CCC2=O)cc1,"inconclusive: 31.6 µM [inhibitor, single point]",–
O=C(Oc1cccc2cccnc12)c1ccco1,active: 10 µM,–
CN1CCN(C(=O)c2ccc(CNS(=O)(=O)c3ccc(F)c(Cl)c3)cc2)CC1,"inconclusive: 1 µM [inhibitor, full curve, poor fit]",–
COc1ccc(CNC(=O)C[C@H]2C[C@H](C(=O)N(C(C)C)C(C)C)[C@@]3(C)c4[nH]c5cc(-c6ccco6)ccc5c4CCN3C2=O)cc1OC,"inconclusive: 28.2 µM [inhibitor, single point]",–
O=C(Nc1ccccc1C(=O)NCc1ccco1)c1ccccc1,"inconclusive: 22.4 µM [inhibitor, single point]",–
CC(NC(=O)c1ccco1)C(c1cccs1)N1CCN(c2ccc(F)cc2)CC1 (stereo not given),"inconclusive: 28.2 µM [inhibitor, single point]",–
Cc1ccc(S(=O)(=O)N2CCC(C(=O)Nc3ccc(C(C)C)cc3)CC2)cc1,"inconclusive: 2.82 µM [inhibitor, full curve, poor fit]",–
O=C(COc1ccccc1[N+](=O)[O-])N/N=C/c1ccccn1,inactive,–
CC(=O)Nc1ccc(S(=O)(=O)N2CCN(Cc3nc4sc(C)c(C)c4c(=O)[nH]3)CC2)cc1,inactive,–
COc1ccc(-c2nc(CN3CCN(c4cc(C)nc(C)c4)CC3)c(C)o2)c2ccccc12,"inconclusive: 8.91 µM [inhibitor, partial curve, poor fit]",–
CN(C)c1ccc(C=Cc2nccc3ccccc23)cc1,"inconclusive: 31.6 µM [inhibitor, partial curve, poor fit]",–
C1CC1Cc1noc(CN2CCN(CC3CC3)CC2)n1,–,inconclusive: -30.1% [inhibitor] [at 7.66 µM]
O=C(NCCC1=CCCCC1)C(=O)NCC1OCCCN1S(=O)(=O)c1ccc(F)cc1 (stereo not given),"inconclusive: 10 µM [inhibitor, partial curve, poor fit]",–
COC(=O)CC1C(=O)NCCN1C(=O)c1c(F)cccc1F (stereo not given),inactive,–
Cc1ccc(NC(=O)C(c2ccccc2)c2ccccc2)c(O)c1,"inconclusive: 14.1 µM [inhibitor, partial curve, poor fit]",–
COCCCNC(=S)Nc1ccc2c(c1)OCCO2,inactive,–
CC[C@]1(c2ccccc2)C(=O)N(C(=O)OC)N1C(=O)OC,inactive,–
O=C(Nc1ccc(Cl)c(C(F)(F)F)c1)c1ccco1,"inconclusive: 12.6 µM [inhibitor, single point]",–
